# In ChEMBL document CHEMBL1201862, “PubChem BioAssay data set” (2004):
# Test system: NCI-H322M
# Experiment: inhibition of tumour cell growth, NCI panel, 48 h
row,Structure (SMILES),GI50
1,CCOP(=O)(OCC)/C(C#N)=C/c1ccnc2ccccc12,inactive: 30.8 µM
2,CSC1=C(SC)C(=O)c2cn(C)c(=O)cc2C1=O,inactive: 18.3 µM
3,N=c1oc2ccc(Cl)cc2cc1C(=O)NC1CCCCC1,inactive: 42.4 µM
4,COc1cc2cc(C(=O)N3C[C@H](CCl)c4c3cc(O)c3ccccc43)[nH]c2c(OC)c1OC,active: 0.192 µM
5,Cc1nc2c(=O)n(C)ncc2[nH]1,inactive: > 100 µM
6,Cc1cc(N(CCC#N)CCC#N)ccc1C(/N=N/c1ccc(Cl)cc1)=N\NC(=O)c1ccccc1,inactive: 36.5 µM
7,C=C1CC(C)(c2cccc(Nc3nc4ccccc4c4occc34)c2)OC1=O (stereo not given),inactive: 31.7 µM
8,COC(=O)c1cc(C)n(CN(Cn2nc(C(=O)OC)cc2C)c2ccccc2)n1,inactive: > 100 µM
9,CCO/N=C\c1ccc2oc(-c3ccccc3)cc(=O)c2c1,active: 0.287 µM
10,COc1cccc2c(NNc3ccccc3)c3ccc([N+](=O)[O-])cc3nc12,inactive: 40.7 µM
11,Cc1ccc(S(=O)(=O)N2CCSCCSCCN(S(=O)(=O)c3ccc(C)cc3)CCN(S(=O)(=O)c3ccc(C)cc3)CC2)cc1,inactive: > 100 µM
12,O=C1CCC2(c3ccc(F)cc3)Nc3ncncc3N12 (stereo not given),inactive: > 10 µM
13,CC(NC(=O)C(N)CC(=O)O)NC(=O)C1CCC1 (stereo not given),inactive: > 100 µM
14,OC12c3ccccc3C1CCCCCCCCCC21OCCCO1 (stereo not given),inactive: > 100 µM
15,S=c1[nH]c2ccc(Br)cc2c(=S)s1,inactive: 27.2 µM
16,CCOc1ccc(NC(=O)C(=O)CC(=O)c2c(C)[n+]([O-])c3ccccc3[n+]2[O-])cc1,inactive: > 100 µM
17,C=C(C)[C@@H]1CCC2=C[C@H](C/C(C)=C\C3=CC(C)=C(O3)[C@H]1O)OC2=O,inactive: > 100 µM
18,CCOC(=O)NNC(=O)NC12CC3CC(CC(C3)C1)C2,inactive: > 100 µM
19,COc1ccc2c(c1)C(N)=C(c1ccccc1OC)C2=O,inactive: > 100 µM
20,Cc1cc2c(c3c1c1ccccc1n3C)C(=O)c1ccccc1C2=O,inactive: > 100 µM
21,O=C/C(=C(/Cl)c1ccc(O)cc1)c1ccccc1,inactive: 36.8 µM
22,C=C(Cl)CN1c2ccccc2C=Cc2ccccc21,inactive: 23.8 µM
23,CC(=O)Nc1ccc(-c2nnc(SCC(=O)Nc3ccc(C)cc3)o2)cc1,inactive: 30.5 µM

row,Structure (SMILES),GI50
1,O=C1[C@H]2C(c3ccccc3)=NN(C(=O)c3ccccc3)[C@H]2C(=O)N1c1ccccc1,inactive: > 100 µM
2,CCOC(=O)C1=C(Nc2ccc(Cl)c(Cl)c2)OC/C1=N\NS(=O)(=O)c1ccc(C)cc1,inactive: 46 µM
3,COc1cc(C2C(C(=O)NCc3ccccc3)=C(C)NC(C)=C2C(=O)NCc2ccccc2)ccc1O,inactive: 54 µM
4,O=c1[nH]c(=O)n(C2C(CO)OC(CO)C2O)cc1F (stereo not given),inactive: > 100 µM
5,COC(=O)/N=[N+](\[O-])C(c1ccccc1)c1ccccc1,inactive: > 100 µM
6,O=C1COc2cc(N3CCN(c4cccc(C(F)(F)F)c4)CC3)ccc2N1,inactive: > 100 µM
7,Cc1cc(Cl)ccc1NC(=O)CCCC(=O)C(C(=O)c1ccccc1)c1ccccc1 (stereo not given),inactive: > 100 µM
8,CCC(=O)C(CCN1CCC(N2C(=O)C(CCC#N)c3ccccc32)CC1)(c1ccccc1)c1ccccc1 (stereo not given),inactive: 18.4 µM
9,C/C(=N\NC(N)=S)c1nc2cccnc2[nH]1,inactive: 65.5 µM
10,CCCSc1cc(Cl)c(C)cc1S(=O)(=O)n1ccnc1O,inactive: > 100 µM
11,CCOC(=O)[C@@H]1ON2O[C@H](OC3CCCCC3c3ccccc3)C[C@H]3OC(=O)[C@@H]1C32 (stereo not given in full),inactive: 80 µM
12,O=C(O)C(O)Cc1ccccn1 (stereo not given),inactive: > 100 µM
13,CC(=O)OCc1cc(CCC(=O)NCCNc2c3ccccc3nc3ccccc23)cc(COC(C)=O)c1O[Si](C)(C)C(C)(C)C,inactive: 13.5 µM
14,CC(=O)N1C/C(=C\c2ccc(N(C)C)cc2)C(=O)/C(=C/c2ccc(N(C)C)cc2)C1,inactive: > 100 µM
15,Cc1cn(C2CC(OP(=O)(O)OCC3OC(n4c[n+]([BH2-]C#N)c5c(=O)[nH]c(N)nc54)CC3O)C(CO)O2)c(=O)[nH]c1=O (stereo not given),inactive: > 100 µM
16,CC[C@H](C)[C@H]1NC(=O)[C@@H](NC(=O)[C@@H](CC(C)C)N(C)C(=O)C2CCCN2C(=O)[C@H](C)O)[C@@H](C)OC(=O)[C@H](Cc2ccc(OC)cc2)N(C)C(=O)[C@@H]2CCCN2C(=O)[C@H](CCCCNC(=O)OCc2ccccc2)NC(=O)[C@H](C)C(=O)[C@H](C(C)C)OC(=O)C[C@@H]1O (stereo not given in full),inactive: 1.49 µM
17,CC#C[C@@]1(O)CCCCC1O (stereo not given in full),inactive: > 100 µM
18,OC1CCC[C@@H]1Sc1ccccc1 (stereo not given in full),inactive: > 100 µM
19,FC(F)(F)C1(C(F)(F)F)O[Si]2(OC(C(F)(F)F)(C(F)(F)F)c3ccccc32)c2ccccc21,inactive: 8.75 µM
20,CCCCCC(=O)OCC1(CO)C/C(=C/CC(C(C)C)C(C)C)C(=O)O1 (stereo not given),inactive: > 75 µM
21,COc1cc(CNc2ccc(C(C)C)cc2)cc(OC)c1OC,inactive: 32.6 µM
22,CCO[C@H]1O[C@@H]2OC3(C)CCC4[C@H](C)CCC([C@H]1C)[C@]42OO3 (stereo not given in full),inactive: > 100 µM

#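 The compound was tested at five concentrations on cells cultured in 96-well plates, with a 48-hour exposure period. Abbreviation: GI50, concentration required for 50% inhibition of growth.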 Active and inactive are the calls of the source. No stated cut-off is given here; in the data, active = GI50 up to about 1.1 µM and inactive = higher.
